This passage reports relative growth results from the supplement of paper PMC9446081.

The whole screen tested about 39,000 compounds, of which about 220 (0.56%) showed activity. The list shows a part of the results.
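Further: static incubation at 37 °C against the wild-type strain, values averaged over two biological replicates.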

This experiment concerns Escherichia coli K-12 BW25113. Kind of experiment: relative growth (OD600 normalised to plate interquartile mean) (fraction); higher = less growth inhibition, active = 0.2 or less. The conditions noted are these: 50 µM; LB; incubation time: overnight (16-24 h).
Take `C[C@@H]1CN([C@@H](C)CO)C(=O)c2cc(C#CC3(O)CCCC3)cnc2O[C@@H]1CN(C)S(C)(=O)=O`: the relative growth is inactive: 1.
The result for `Cn1cnc(S(=O)(=O)N2C[C@@H](O)COC[C@H]3O[C@@H](CC(=O)NC4CCCC4)CC[C@@H]32)c1` reads inactive: 1.01; that for `CC(=O)NCCc1cnc[nH]1`, inactive: 0.989.
Take `COc1ccc(S(=O)(=O)Nc2ccc3c(c2)C(=O)N([C@@H](C)CO)C[C@@H](C)[C@H](CN(C)Cc2ccc4c(c2)OCO4)OCCCC[C@H](C)O3)cc1`: the relative growth is inactive: 1.01.
As to `COc1ccccc1C#Cc1cnc2c(c1)C(=O)N([C@@H](C)CO)C[C@@H](C)[C@H](CN(C)C(=O)CN(C)C)O2`, the relative growth was inactive: 1.01.
The result for `C[C@H]1CN([C@@H](C)CO)C(=O)c2cccc(NC(=O)Nc3ccc4c(c3)OCO4)c2O[C@@H]1CN(C)Cc1ccc(C(=O)Nc2ccccc2N)cc1` reads inactive: 1.03; that for `C[C@@H]1CCCCO[C@H](CN(C)Cc2ccc(Cl)c(Cl)c2)[C@H](C)CN([C@@H](C)CO)C(=O)c2cc(NS(=O)(=O)c3ccc(Cl)cc3)ccc2O1`, inactive: 1.03; that for `C[C@H]1CN([C@@H](C)CO)C(=O)Cc2cc(NC(=O)Nc3ccc(F)cc3)ccc2O[C@@H]1CN(C)C(=O)Nc1cccc2ccccc12`, inactive: 0.989.
`C[C@@H]1CN([C@H](C)CO)C(=O)c2cccc(NC(=O)c3cnccn3)c2O[C@@H]1CN(C)C(=O)NC1CCCCC1`: the relative growth was inactive: 0.986.
The figure for `COCCNC(=O)C[C@H]1C[C@@H]2c3cc(NS(C)(=O)=O)ccc3O[C@@H]2[C@H](CO)O1` is inactive: 1.01.
Turning to `C[C@H]1CN([C@@H](C)CO)C(=O)Cc2cc(NC(=O)Cc3ccccc3)ccc2O[C@H]1CN(C)Cc1ccc(Cl)c(Cl)c1`, the relative growth was inactive: 1.01.
As to `COc1nc(N2CCOCC2)nc(N)c1[N+](=O)[O-]`, the relative growth was inactive: 0.997.
For the molecule `c1ccc(CN(CC2=NCCN2)c2ccccc2)cc1`, the relative growth was inactive: 1.04.
With `Cc1cc(C(=O)NN)nn1C`, the relative growth is inactive: 0.993.
For `Cc1ccc(S(=O)(=O)Nc2ccc3c(c2)C(=O)N([C@@H](C)CO)C[C@H](C)[C@H](CN(C)C(=O)Nc2cccc4ccccc24)OCCCC[C@@H](C)O3)cc1`, the relative growth is inactive: 1.04.
The figure for `Cc1noc(C)c1S(=O)(=O)Nc1ccc2c(c1)CC(=O)N([C@@H](C)CO)C[C@@H](C)[C@@H](CN(C)Cc1ccncc1)O2` is inactive: 1.01; for `C[C@@H]1CN([C@@H](C)CO)C(=O)c2cc(NC(=O)C3CCCCC3)ccc2O[C@@H](C)CCCCO[C@H]1CN(C)C(=O)c1ccncc1` it is inactive: 0.985.
The figure for `C[C@H](CO)N1C[C@H](C)[C@H](CN(C)C(=O)c2ccccc2)OCCCC[C@H](C)Oc2ccc(NS(=O)(=O)c3ccc(Cl)cc3)cc2C1=O` is inactive: 1.04; for `Cc1noc(C)c1S(=O)(=O)Nc1ccc2c(c1)C(=O)N([C@H](C)CO)C[C@@H](C)[C@H](CN(C)C(=O)Nc1cccc3ccccc13)OCCCC[C@@H](C)O2` it is inactive: 1.01; for `C[C@H]1CN([C@@H](C)CO)C(=O)c2cccc(NC(=O)CCCCCC(=O)Nc3ccccc3N)c2O[C@H]1CN(C)S(C)(=O)=O` it is inactive: 0.969.
Consider `Cc1ccc(S(=O)(=O)Nc2ccc3c(c2)CC(=O)N([C@@H](C)CO)C[C@H](C)[C@@H](CN(C)S(=O)(=O)c2cccs2)O3)cc1`, for which the relative growth was inactive: 1.
The figure for `Cc1cn(CCN2CCN(c3ccccc3-c3cc(C#N)cc(C(=O)NCCCN4CCCC4)c3)CC2)c2ccccc12` is inactive: 1.01; for `C=C(CC)C(=O)c1ccc(OCC(=O)O)c(Cl)c1Cl` it is inactive: 1.08.
The figure for `COc1ccc(NC(=O)N(C)C[C@@H]2OCCCC[C@H](C)Oc3ccc(NC(=O)c4ccncc4)cc3C(=O)N([C@H](C)CO)C[C@@H]2C)cc1` is inactive: 1.
With `COc1ccc(NC(=O)N(C)C[C@H]2OCCCC[C@@H](C)Oc3ccc(NC(=O)Nc4ccc(F)cc4)cc3C(=O)N([C@@H](C)CO)C[C@H]2C)cc1`, the relative growth is inactive: 1.05.
Consider `Cc1ccc(S(=O)(=O)N(C)C[C@H]2Oc3ccc(NS(C)(=O)=O)cc3C(=O)N([C@@H](C)CO)C[C@@H]2C)cc1`, for which the relative growth is inactive: 0.991.
As for `COc1ccc(NC(=O)Nc2ccc3c(c2)CC(=O)N([C@H](C)CO)C[C@@H](C)[C@H](CN(C)CC2CCCCC2)O3)cc1`, the relative growth was inactive: 0.893.
Consider `CNC(=O)C[C@H]1CC[C@@H]2[C@H](COC[C@H](O)CN2C(=O)Nc2cccc(OC)c2)O1`, for which the relative growth is inactive: 1.
Regarding `C[C@@H]1CN([C@H](C)CO)C(=O)c2cc(NC(=O)Nc3cccc4ccccc34)ccc2O[C@H]1CN(C)C(=O)Nc1ccc2c(c1)OCO2`, the relative growth was inactive: 1.
Consider `C[C@H](CO)N1C[C@H](C)[C@@H](CN(C)C(=O)Nc2cccc3ccccc23)OCCCC[C@H](C)Oc2ccc(NC(=O)C3CCCCC3)cc2C1=O`, for which the relative growth is inactive: 1.
Turning to `COc1cccc(NC(=O)N2C[C@H](O)COC[C@H]3O[C@H](CC(=O)NCCCN4CCOCC4)CC[C@@H]32)c1`, the relative growth was inactive: 0.987.
Consider `C[C@H](CO)N1C[C@H](C)[C@H](CN(C)S(=O)(=O)c2cn(C)cn2)Oc2ccc(NC(=O)Nc3ccccc3)cc2C1=O`, for which the relative growth was inactive: 0.962.
On to `OC[C@H]1O[C@@H](O[C@@H]2[C@@H](CO)O[C@](O)(CO)[C@H]2O)[C@H](O)[C@@H](O)[C@H]1O`, for which the relative growth is inactive: 0.994.
For the molecule `NNc1cccc(C(=O)O)c1`, the relative growth is inactive: 0.972.
The figure for `NC(CCC(=O)NC(CS)C(=O)NCC(=O)O)C(=O)O` (stereo not given) is inactive: 1.06; for `CCc1nc2ccc(C(=O)Nc3cccc(NS(C)(=O)=O)c3)cn2c1N(C)CCN1CCOCC1` it is inactive: 0.978.
The result for `COc1ccc(NC(=O)O[C@H]2[C@H](OC(=O)Nc3ccccc3-c3ccccc3)[C@H](OC(=O)Nc3ccccc3-c3ccccc3)[C@@H](OC)O[C@@H]2COC(=O)NCCCCCC(=O)NO)cc1` reads inactive: 0.994; that for `C[C@H](CO)N1C[C@H](C)[C@@H](CN(C)C(=O)Nc2ccc3c(c2)OCO3)OCCCC[C@H](C)Oc2ccc(NS(=O)(=O)c3cccs3)cc2C1=O`, inactive: 1.02; that for `COc1ccc([C@H]2CC([C@@H]3C(=O)N[C@H]4CC[C@H](Br)C[C@@H]4[C@H]3c3ccccc3)=NN2C(=O)c2ccccc2)cc1`, inactive: 1.01.
For the molecule `N=C(N)NCCCCNC(=N)N`, the relative growth is inactive: 1.01.
Turning to `Nc1ccc(S(=O)(=O)NC(=O)c2ccccc2)cc1`, the relative growth is inactive: 1.2.
Turning to `C[C@H]1CN([C@@H](C)CO)C(=O)c2cc(NS(=O)(=O)c3ccc(F)cc3)ccc2O[C@H]1CN(C)S(C)(=O)=O`, the relative growth was inactive: 0.987.
Consider `Cc1ccc(S(=O)(=O)N(C)C[C@H]2OCCCC[C@H](C)Oc3ccc(NC(=O)NC4CCCCC4)cc3C(=O)N([C@H](C)CO)C[C@@H]2C)cc1`, for which the relative growth is inactive: 1.02.
With `C[C@@H]1CN([C@H](C)CO)C(=O)CCCn2nncc2CO[C@H]1CN(C)Cc1ccc2c(c1)OCCN2C`, the relative growth was inactive: 0.988.
Turning to `C[C@H](CO)N1C[C@H](C)[C@@H](CN(C)C(=O)Cc2ccccc2)OCCCC[C@H](C)Oc2ccc(NC(=O)Nc3ccccc3)cc2C1=O`, the relative growth was inactive: 1.01.
The result for `C[C@H]1CN([C@@H](C)CO)C(=O)c2cccc(NC(=O)C3CC3)c2O[C@@H]1CN(C)Cc1ccc(-c2ccccc2)cc1` reads inactive: 1.01; that for `CC(C)NC(=O)N(C)C[C@H]1Oc2ccc(NC(=O)CCCN(C)C)cc2C(=O)N([C@H](C)CO)C[C@@H]1C`, inactive: 1.05; that for `CCS(=O)(=O)NCC[C@H]1CC[C@H](NC(=O)C2CCOCC2)[C@H](CO)O1`, inactive: 0.975.
The figure for `C[C@@H]1CCCCO[C@H](CN(C)C(=O)Nc2ccccc2)[C@H](C)CN([C@H](C)CO)C(=O)c2cc(NC(=O)c3ccncc3)ccc2O1` is inactive: 0.988; for `COCC#Cc1cnc2c(c1)C(=O)N([C@H](C)CO)C[C@H](C)[C@@H](CN(C)C(=O)c1cnccn1)O2` it is inactive: 1.03; for `COc1ccc(S(=O)(=O)Nc2ccc3c(c2)C(=O)N([C@@H](C)CO)C[C@@H](C)[C@H](CN(C)Cc2ccc(C(F)(F)F)cc2)OCCCC[C@@H](C)O3)cc1` it is inactive: 0.965.
Regarding `COc1cccc(S(=O)(=O)N[C@@H]2C=C[C@@H](CC(=O)NC3CCC3)O[C@@H]2CO)c1`, the relative growth is inactive: 0.981.
For the molecule `C[C@@H]1CCCCO[C@H](CN(C)C(=O)Nc2cccc3ccccc23)[C@@H](C)CN([C@H](C)CO)C(=O)c2cc(NS(=O)(=O)c3ccccc3)ccc2O1`, the relative growth was inactive: 0.994.
Take `C[C@H](CO)N1C[C@H](C)[C@H](CN(C)S(=O)(=O)c2ccc(F)cc2)Oc2ccc(NS(=O)(=O)c3cn(C)cn3)cc2CC1=O`: the relative growth was inactive: 0.994.
In the case of `COC(=O)[C@H](Cc1ccccc1)N1CC2=C[C@@H](C3CC3)n3c(=O)n(C)c(=O)n3[C@H]2[C@@H]1[C@@H](O)CCn1cc(-c2ccc(C(=O)NO)cc2)nn1`, the relative growth is inactive: 0.985.
`C[C@@H]1CN([C@H](C)CO)C(=O)c2cc(NS(=O)(=O)c3ccc(Cl)cc3)ccc2O[C@H]1CN(C)Cc1ccc(-c2ccccc2)cc1`: the relative growth is inactive: 1.03.
In the case of `C[C@H]1CN([C@@H](C)CO)C(=O)c2cc(NC(=O)CCN3CCOCC3)ccc2O[C@H]1CN(C)S(=O)(=O)c1ccccc1`, the relative growth was inactive: 1.04.
On to `C[C@@H]1CN([C@H](C)CO)C(=O)c2cc(C#Cc3ccc(F)cc3)cnc2O[C@@H]1CN(C)CC1CCOCC1`, for which the relative growth was inactive: 1.01.
With `NCC[C@H]1CC[C@@H](NC(=O)C2CCCC2)[C@@H](CO)O1`, the relative growth is inactive: 1.
Take `CC(C)NC(=O)N(C)C[C@@H]1Oc2cc(C#Cc3ccc(F)cc3)ccc2S(=O)(=O)N([C@@H](C)CO)C[C@@H]1C`: the relative growth is inactive: 0.989.
